# According to the supplement of paper PMC8728848:
# This is one part of the list.
# B1: LICBM33A (Lactococcus lactis), Q9CE94 (protein)
# chain: MKKLLTGLLVAAGLLSVSLLIKTDTVSAHGYVQSPPARGYQGQLDSQSLGWTAAFNIYGNVISNPQSLEAPKGFPECGPADGRIASANGGLGQIGDFVLDNQTSSRWKKTSISTGSNIFTWKYTAPHKTTKWHYYMTKTGWDQNAPLKHSELELIGTINHDGSPATNNLSHTINIPTDRSGYHIVLAVWDVADTSNAFYNVIDINVNNKNASSQVFGPFL
# Columns and labels:
# Assay in all cases: glycan array binding signal (z-score within array); higher = stronger binding
# Conditions in all cases: glycan notation: IUPAC condensed, linker removed
# Fuc(a1-2)Gal = target: Fuc(a1-2)Gal
# Summary of the method: (§1)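 Glycan array data were curated from 3228 arrays in the Consortium for Functional Glycomics database and kept only where the protein sequence was available. Glycan names were converted to IUPAC-condensed notation, and columns mapping to the same glycan were averaged. The binding signal is a within-array Z-score, averaged across arrays of the same protein sequence at different concentrations or buffers and across linkers. Negative Z-scores can be read as non-binding.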
# Fuc(a1-2)Gal(b1-3)GalNAc = target: Fuc(a1-2)Gal(b1-3)GalNAc
# Summary of the method: as §1
# [1] = target: Fuc(a1-2)Gal(b1-3)GalNAc(a1-3)[Fuc(a1-2)]Gal(b1-4)Glc
# Summary of the method: as §1
# [2] = target: Fuc(a1-2)Gal(b1-3)GalNAc(a1-3)[Fuc(a1-2)]Gal(b1-4)GlcNAc
# Summary of the method: as §1
# [3] = target: Fuc(a1-2)Gal(b1-3)GalNAc(b1-3)Gal
# Summary of the method: as §1
# [4] = target: Fuc(a1-2)Gal(b1-3)GalNAc(b1-3)Gal(a1-4)Gal(b1-4)Glc
# Summary of the method: as §1
# [5] = target: Fuc(a1-2)Gal(b1-3)GalNAc(b1-4)[Neu5Ac(a2-3)]Gal(b1-4)Glc
# Summary of the method: as §1
# Fuc(a1-2)Gal(b1-3)GlcNAc = target: Fuc(a1-2)Gal(b1-3)GlcNAc
# Summary of the method: as §1
# [6] = target: Fuc(a1-2)Gal(b1-3)GlcNAc(b1-2)Man(a1-3)[Fuc(a1-2)Gal(b1-3)GlcNAc(b1-2)Man(a1-6)]Man(b1-4)GlcNAc(b1-4)GlcNAc
# Summary of the method: as §1
# [7] = target: Fuc(a1-2)Gal(b1-3)GlcNAc(b1-2)Man(a1-3)[Fuc(a1-2)Gal(b1-3)GlcNAc(b1-2)Man(a1-6)]Man(b1-4)GlcNAc(b1-4)[Fuc(a1-6)]GlcNAc
# Summary of the method: as §1
# [8] = target: Fuc(a1-2)Gal(b1-3)GlcNAc(b1-3)Gal(b1-4)Glc
# Summary of the method: as §1
# [9] = target: Fuc(a1-2)Gal(b1-3)GlcNAc(b1-3)GalNAc
# Summary of the method: as §1
# [10] = target: Fuc(a1-2)Gal(b1-3)GlcNAc(b1-3)[Fuc(a1-2)Gal(b1-3)GlcNAc(b1-6)]GalNAc
# Summary of the method: as §1
# [11] = target: Fuc(a1-2)Gal(b1-3)GlcNAc(b1-3)[Gal(b1-4)GlcNAc(b1-6)]Gal(b1-4)Glc
# Summary of the method: as §1
# [12] = target: Fuc(a1-2)Gal(b1-3)GlcNAc(b1-3)[Neu5Ac(a2-6)Gal(b1-4)GlcNAc(b1-6)]Gal(b1-4)Glc
# Summary of the method: as §1
# [13] = target: Fuc(a1-2)Gal(b1-3)GlcNAc6S
# Summary of the method: as §1
# [14] = target: Fuc(a1-2)Gal(b1-3)[Fuc(a1-4)]GlcNAc
# Summary of the method: as §1
# [15] = target: Fuc(a1-2)Gal(b1-3)[Fuc(a1-4)]GlcNAc(b1-2)Man(a1-3)[Fuc(a1-2)Gal(b1-3)[Fuc(a1-4)]GlcNAc(b1-2)Man(a1-3)]Man(b1-4)GlcNAc(b1-4)GlcNAc
# Summary of the method: as §1
# [16] = target: Fuc(a1-2)Gal(b1-3)[Fuc(a1-4)]GlcNAc(b1-2)Man(a1-3)[Fuc(a1-2)Gal(b1-3)[Fuc(a1-4)]GlcNAc(b1-2)Man(a1-6)]Man(b1-4)GlcNAc(b1-4)[Fuc(a1-6)]GlcNAc(b1-4)[Fuc(a1-6)]GlcNAc
# Summary of the method: as §1
# [17] = target: Fuc(a1-2)Gal(b1-3)[Fuc(a1-4)]GlcNAc(b1-3)[Fuc(a1-3)[Gal(b1-4)]GlcNAc(b1-6)]Gal(b1-4)Glc
# Summary of the method: as §1
# [18] = target: Fuc(a1-2)Gal(b1-3)[Fuc(a1-4)]GlcNAc(b1-3)[Gal(b1-4)GlcNAc(b1-6)]Gal(b1-4)Glc
# Summary of the method: as §1
# [19] = target: Fuc(a1-2)Gal(b1-4)Fuc(a1-3)]GlcNAc(b1-2)Man(a1-3)[Fuc(a1-2)Gal(b1-4)[Fuc(a1-3)]GlcNAc(b1-2)Man(a1-6)]Man(b1-4)GlcNAc(b1-4)GlcNAc
# Summary of the method: as §1
# Fuc(a1-2)Gal(b1-4)Glc = target: Fuc(a1-2)Gal(b1-4)Glc
# Summary of the method: as §1
# Fuc(a1-2)Gal(b1-4)Glc6S = target: Fuc(a1-2)Gal(b1-4)Glc6S
# Summary of the method: as §1
# Fuc(a1-2)Gal(b1-4)GlcNAc = target: Fuc(a1-2)Gal(b1-4)GlcNAc
# Summary of the method: as §1
# [20] = target: Fuc(a1-2)Gal(b1-4)GlcNAc(b1-2)Man
# Summary of the method: as §1
# [21] = target: Fuc(a1-2)Gal(b1-4)GlcNAc(b1-2)Man(a1-3)[Fuc(a1-2)Gal(b1-4)GlcNAc(b1-2)Man(a1-6)]Man(b1-4)GlcNAc(b1-4)GlcNAc
# Summary of the method: as §1
# [22] = target: Fuc(a1-2)Gal(b1-4)GlcNAc(b1-2)Man(a1-3)[Fuc(a1-2)Gal(b1-4)GlcNAc(b1-2)Man(a1-6)]Man(b1-4)GlcNAc(b1-4)[Fuc(a1-6)]GlcNAc
# Summary of the method: as §1
# [23] = target: Fuc(a1-2)Gal(b1-4)GlcNAc(b1-2)[Fuc(a1-2)Gal(b1-4)GlcNAc(b1-4)]Man(a1-3)[Fuc(a1-2)Gal(b1-4)GlcNAc(b1-2)Man(a1-6)]Man(b1-4)GlcNAc(b1-4)GlcNAc
# Summary of the method: as §1
# [24] = target: Fuc(a1-2)Gal(b1-4)GlcNAc(b1-3)Gal(b1-4)GlcNAc
# Summary of the method: as §1
binder,measurement,setting,value
B1,glycan array binding signal (z-score),Fuc(a1-2)Gal,0.396
same,glycan array binding signal (z-score),Fuc(a1-2)Gal(b1-3)GalNAc,-0.051
same,glycan array binding signal (z-score),[1],-0.534
same,glycan array binding signal (z-score),[2],-0.968
same,glycan array binding signal (z-score),[3],-0.451
same,glycan array binding signal (z-score),[4],0.488
same,glycan array binding signal (z-score),[5],-0.276
same,glycan array binding signal (z-score),Fuc(a1-2)Gal(b1-3)GlcNAc,-0.947
same,glycan array binding signal (z-score),[6],-1.27
same,glycan array binding signal (z-score),[7],-0.329
same,glycan array binding signal (z-score),[8],0.456
same,glycan array binding signal (z-score),[9],-0.484
same,glycan array binding signal (z-score),[10],0.347
same,glycan array binding signal (z-score),[11],0.055
same,glycan array binding signal (z-score),[12],-0.364
same,glycan array binding signal (z-score),[13],1.3
same,glycan array binding signal (z-score),[14],-0.377
same,glycan array binding signal (z-score),[15],0.001
same,glycan array binding signal (z-score),[16],0.884
same,glycan array binding signal (z-score),[17],-0.844
same,glycan array binding signal (z-score),[18],-0.224
same,glycan array binding signal (z-score),[19],-0.901
same,glycan array binding signal (z-score),Fuc(a1-2)Gal(b1-4)Glc,0.23
same,glycan array binding signal (z-score),Fuc(a1-2)Gal(b1-4)Glc6S,1.25
same,glycan array binding signal (z-score),Fuc(a1-2)Gal(b1-4)GlcNAc,0.162
same,glycan array binding signal (z-score),[20],-0.573
same,glycan array binding signal (z-score),[21],-0.636
same,glycan array binding signal (z-score),[22],0.363
same,glycan array binding signal (z-score),[23],6.68
same,glycan array binding signal (z-score),[24],3.32
